Experimental data published in article PMC7819943, “Rice protein-binding microarrays: a tool to detect cis-acting elements near promoter regions in rice”.
The other results are listed elsewhere or left out.

Target: T1, OsWOX13 (Oryza sativa, UniProt Q5QMM3 1-267)
T1 sequence: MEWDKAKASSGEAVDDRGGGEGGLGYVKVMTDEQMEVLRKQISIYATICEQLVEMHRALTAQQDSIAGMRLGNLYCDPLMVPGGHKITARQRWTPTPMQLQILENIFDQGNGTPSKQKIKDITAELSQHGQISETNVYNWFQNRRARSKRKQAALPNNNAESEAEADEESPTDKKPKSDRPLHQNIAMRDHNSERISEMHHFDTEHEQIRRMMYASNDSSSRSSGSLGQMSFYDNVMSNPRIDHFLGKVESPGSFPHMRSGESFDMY
Assay: protein-binding microarray (RPBM); PBS, 2% BSA, 51.3 ng/ul salmon testes DNA, 50 uM zinc acetate, 200 nM TF, 25 C, 1 h; high values mean tight binding
Conditions: protein: recombinant; tags: N-terminal polyhistidine and DsRed monomer fusion (pET32a); label: CyDye5-dUTP incorporated in the synthesized complementary strand; 3' TTTTT single-stranded linker to array surface; dsDNA, one strand shown
Method in brief: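 Using Ni–NTA, transcription factors fused N-terminally to polyhistidine and DsRed were purified after expression in E. coli BL21-CodonPlus. These were incubated at 200 nM with a blocked, double-stranded custom Agilent array for 1 h at 25 °C in a buffer containing 50 µM zinc acetate, and the array was washed. The binding signal is per-feature fluorescence intensity (arbitrary units) on an Axon 4000B scanner.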

Going from “TTTATGTTAGTGCTAGTGATTAGTACTTAAACATTCAGAGCGGAGTCACCTAGTGCAG” to “ATAGAATTGTAGACTTCAATTTACTGTCGTGACTTTTCCACGGAGTCACCTAGTGCAG”, the binding signal falls from 4670 fluorescence intensity (a.u.) to 3310 fluorescence intensity (a.u.).

First: GTGGGGACTAATTAATTAATGCGGTGATGTGGAGCTGATTCGGAGTCACCTAGTGCAG
Second: AGAGTAATTGCCCACATCGCCCAGTCCCAGACCCAGCTGCCGGAGTCACCTAGTGCAG
The binding signal of the first is higher: 21800 fluorescence intensity (a.u.) for the first, 11100 fluorescence intensity (a.u.) for the second.

First: ATCAATAGATTGGTGCCTCGTTGGATCAAAAGCAAGGCCTCGGAGTCACCTAGTGCAG
Second: ACATGTTAATTATAATATAATAATAGGTTAAATATACACACGGAGTCACCTAGTGCAG
The binding signal of the first is higher: 28900 fluorescence intensity (a.u.) for the first, 25800 fluorescence intensity (a.u.) for the second.

Going from “AGTAAATTTGTGCCCATTTCACGGTAGTACATCATCTTTCCGGAGTCACCTAGTGCAG” to “TTCTGATGATCTGTTGAAACTGATCATAACCCAATACTATCGGAGTCACCTAGTGCAG”, the binding signal falls from 9360 fluorescence intensity (a.u.) to 4040 fluorescence intensity (a.u.).

Going from “CAATTGATAGTATTATTAATGTTGAAAGTTGATGTGTGTTCGGAGTCACCTAGTGCAG” to “CAGCCAATCACCAAAATATATTTTGCATTGTGAGGAGGGGCGGAGTCACCTAGTGCAG”, the binding signal rises from 9450 fluorescence intensity (a.u.) to 14100 fluorescence intensity (a.u.).

Going from “ATGTGATAGGGATTTAAAAGTTTTAGTCTCATCTAAACAGCGGAGTCACCTAGTGCAG” to “TATTGATTAAATTTAATTTATAGATAGACTAATATTTTACCGGAGTCACCTAGTGCAG”, the binding signal rises from 8680 fluorescence intensity (a.u.) to 29800 fluorescence intensity (a.u.).

Going from “CCATCATTTGATCAATCGGATGTAGTCGCCAGCTTTAGGACGGAGTCACCTAGTGCAG” to “TGCATATTGTTATAATCAAGATTATATACAATTTCTCACTCGGAGTCACCTAGTGCAG”, the binding signal rises from 3220 fluorescence intensity (a.u.) to 3780 fluorescence intensity (a.u.).

Compared with “CCTCCAATTTACCACGCCCTAAACAATATGTGATATTAAGCGGAGTCACCTAGTGCAG”, “CGCAAATAATTTCAATATATACTATGCAATTCTATACATTCGGAGTCACCTAGTGCAG” is higher in binding signal: 4210 fluorescence intensity (a.u.) for the first, 9340 fluorescence intensity (a.u.) for the second.

First: CGTGTGACAGGCCCATTAGATTAGACCTAGATCTGTCTCGCGGAGTCACCTAGTGCAG
Second: ATATCAATCTATCCCATCGAGTCGGCTGCACTGATCGATTCGGAGTCACCTAGTGCAG
The binding signal of the first is higher: 25000 fluorescence intensity (a.u.) for the first, 9870 fluorescence intensity (a.u.) for the second.

First: CACTGCATAATTATTGCCATCTGATCTGAAGCTTCAGGGGCGGAGTCACCTAGTGCAG
Second: GATGGATGGGGTGGGGACTGGGGATGGATGGAGGCGGCGGCGGAGTCACCTAGTGCAG
The binding signal of the first is higher: 12300 fluorescence intensity (a.u.) for the first, 7980 fluorescence intensity (a.u.) for the second.

Going from “ATTAACGACTTTTAATTTGAAACGGATTGAGTAGCTAGTTCGGAGTCACCTAGTGCAG” to “GCAGCTGATGTTTGATAGATTAGACGGTGTATAGTGCTGACGGAGTCACCTAGTGCAG”, the binding signal falls from 16100 fluorescence intensity (a.u.) to 12500 fluorescence intensity (a.u.).

First: TTGGTTGAAATTGAAACGATGTGACGGAAAAGTTGGAAGTCGGAGTCACCTAGTGCAG
Second: TATGTTAATTATGCCTAGATTATAGTGTTATAGTATATGGCGGAGTCACCTAGTGCAG
The binding signal of the first is lower: 3520 fluorescence intensity (a.u.) for the first, 32500 fluorescence intensity (a.u.) for the second.

Compared with “TCTGAATGATATTGCCAGTCTTGGCATGCAGTTACCACCTCGGAGTCACCTAGTGCAG”, “AATTAATCACGCGCTAATGGACCGTTCCGTTTTCCGTGCGCGGAGTCACCTAGTGCAG” is higher in binding signal: 4040 fluorescence intensity (a.u.) for the first, 31000 fluorescence intensity (a.u.) for the second.

Compared with “GCTAGATTGGTGGCGTGATCTTGATGGTCTGCTCACCGCCCGGAGTCACCTAGTGCAG”, “GGCAGGATTATTACGAGATAGAAACCTTAACCAATACGGTCGGAGTCACCTAGTGCAG” is lower in binding signal: 39400 fluorescence intensity (a.u.) for the first, 3520 fluorescence intensity (a.u.) for the second.

Going from “TAAATATAATTGTTTGAAAATAATATAAATAAACACGCTCCGGAGTCACCTAGTGCAG” to “ATACTAATTATGACACACTGATATATATAACACGGGTATCCGGAGTCACCTAGTGCAG”, the binding signal rises from 12600 fluorescence intensity (a.u.) to 31600 fluorescence intensity (a.u.).

First: GGTATATTATGATTAAAATCCATGATATATTTTATGTACTCGGAGTCACCTAGTGCAG
Second: TTGTATAATTTGATCAAGGTCCCTCCCGAACAGTTTCTCTCGGAGTCACCTAGTGCAG
The binding signal of the first is lower: 7040 fluorescence intensity (a.u.) for the first, 11500 fluorescence intensity (a.u.) for the second.

Going from “CTGGTAAATTTGCTTGGTCACTGACGGAGTGTACGCAGCACGGAGTCACCTAGTGCAG” to “TCACTTCAATTATTCGCTTTGGATTTATCGCTTCTGGAAACGGAGTCACCTAGTGCAG”, the binding signal falls from 14100 fluorescence intensity (a.u.) to 4700 fluorescence intensity (a.u.).

Going from “CCTTAATTACATTGTATATAGTGATGTATGATTTATTTTACGGAGTCACCTAGTGCAG” to “CCGGTAATCTCACTGTTAATCTCGCGTTTGACTATGTCGCCGGAGTCACCTAGTGCAG”, the binding signal falls from 14700 fluorescence intensity (a.u.) to 6970 fluorescence intensity (a.u.).

Going from “ACCTAATTAACCCGGCCTTAATTTCTTTCTTCTCCACCTCCGGAGTCACCTAGTGCAG” to “AATTAATTGGAAAGTTCATTTGGGCCACGTGCCAAATACACGGAGTCACCTAGTGCAG”, the binding signal falls from 38100 fluorescence intensity (a.u.) to 22900 fluorescence intensity (a.u.).

Compared with “CACTAAATTTTAACACCTTCAGCGAATTTCTGTGCACGGCCGGAGTCACCTAGTGCAG”, “TTACACCAAAGTTTATGCAATTAGGAATAATTGCATTGGACGGAGTCACCTAGTGCAG” is lower in binding signal: 8790 fluorescence intensity (a.u.) for the first, 3590 fluorescence intensity (a.u.) for the second.

First: GTTCATCAATCTACTGTACTGGCCTCCTTCTCAGCTCTCACGGAGTCACCTAGTGCAG
Second: TCGGTCCTAATGTAATTACTTCTAATAGTACAAAGAGTTACGGAGTCACCTAGTGCAG
The binding signal of the first is higher: 7190 fluorescence intensity (a.u.) for the first, 7030 fluorescence intensity (a.u.) for the second.

Going from “CACCAGTGATCTTATAATTGTAAATTTTGATCCAAGATTCCGGAGTCACCTAGTGCAG” to “AAGATTTGCTGGGAGGGTGGGGTGGGGATTAGTCCCTAAACGGAGTCACCTAGTGCAG”, the binding signal rises from 3800 fluorescence intensity (a.u.) to 7320 fluorescence intensity (a.u.).

First: TTTGATGATGGATGGGCAGATGCGTGGTGGTCCTGAATCTCGGAGTCACCTAGTGCAG
Second: CTCTAACTTTATTGACAAGGCATTCTCTTAGTCCTGTAGGCGGAGTCACCTAGTGCAG
The binding signal of the first is higher: 21100 fluorescence intensity (a.u.) for the first, 15800 fluorescence intensity (a.u.) for the second.

First: GGAAATTGAAGGGGAGTAAGAGTAGGAATACGGTGCAAATCGGAGTCACCTAGTGCAG
Second: TGTGATCATATCACAGATTGGATAAGTAAATCATAAGAAACGGAGTCACCTAGTGCAG
The binding signal of the first is higher: 15300 fluorescence intensity (a.u.) for the first, 3290 fluorescence intensity (a.u.) for the second.

Going from “TAATTAAATTTTAGTAATTCATAGGGCGTTAATGCTTTTCCGGAGTCACCTAGTGCAG” to “ATGAAATTAGTTTGTTCATTCGTATTCGAAAACCCCTTCCCGGAGTCACCTAGTGCAG”, the binding signal rises from 5080 fluorescence intensity (a.u.) to 7400 fluorescence intensity (a.u.).

Going from “TTCCTAATTAATAGATAAACTGACATGCCGCATCCTCTTTCGGAGTCACCTAGTGCAG” to “TTTTGACTAATAATTAATTCACATACAACTACATTTAGGGCGGAGTCACCTAGTGCAG”, the binding signal falls from 27000 fluorescence intensity (a.u.) to 20800 fluorescence intensity (a.u.).

First: AGTCACACCAGCATTTGCTAATTGGCTGCTCATCTGCTGTCGGAGTCACCTAGTGCAG
Second: GCATTCTACTCTTTTGATTAGGACTAATAATAAGATGAAACGGAGTCACCTAGTGCAG
The binding signal of the first is lower: 3980 fluorescence intensity (a.u.) for the first, 6860 fluorescence intensity (a.u.) for the second.
